The other results are listed elsewhere or left out. At the low end of the ranking, values are background and their order means little. The protein was read in a cell extract, so binding may be indirect.

The experiment deals with T1, HNF4alpha2 (COS-7 nuclear extract) (UniProt P41235).
T1 sequence: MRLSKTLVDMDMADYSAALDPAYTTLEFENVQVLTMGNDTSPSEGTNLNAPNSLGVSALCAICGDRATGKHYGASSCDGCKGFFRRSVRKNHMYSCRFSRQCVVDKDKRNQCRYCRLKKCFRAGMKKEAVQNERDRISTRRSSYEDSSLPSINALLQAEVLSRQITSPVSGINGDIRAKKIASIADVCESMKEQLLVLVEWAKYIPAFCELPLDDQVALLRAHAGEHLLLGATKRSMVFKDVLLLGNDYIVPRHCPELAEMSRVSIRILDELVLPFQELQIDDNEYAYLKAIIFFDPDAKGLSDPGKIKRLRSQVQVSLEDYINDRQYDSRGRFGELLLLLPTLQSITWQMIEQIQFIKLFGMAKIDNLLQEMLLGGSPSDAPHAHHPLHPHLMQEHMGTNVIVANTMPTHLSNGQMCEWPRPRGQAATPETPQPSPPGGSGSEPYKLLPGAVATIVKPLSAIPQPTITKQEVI
Nature of the experiment: protein-binding microarray. Particulars: COS-7 nuclear extract on double-stranded Agilent 4x180k PBM; binding buffer, salt, pH and temperature not given; high values mean tight binding; double strand, one strand shown; sequences stand for … in …GCCTAGGGAGATTAGAGTATCGGTCGA
Take ACCCAGGCAAAGTCCAGAAATAGCATCACG: the binding signal (log2 normalized intensity) is 0.911. As for GATAAGGAACTGTTATCAAGTGAGAAACCA, the figure is -1.16.

Take CCTGCCAGCTGTTATGAGTCTGTTGTCTAA: the binding signal (log2 normalized intensity) was 1.42. To GTTGGACTGAGGACCACATGAGTAAACAAG belongs -0.371; to ATTTCAAAGGGAGCATATGTATGTCAGAGT, 1.64; to TTCTCTGGTCTGCGGTTGTGTAGACGCTCT, 1.11.

As to ATGAACTTTGACCCACCTACATTGATATTC, the binding signal (log2 normalized intensity) came out at 4.81. As for ACTAGGCTACATGATACAGCCTTTTGCCCC, the figure is 3.4. For the sequence GAAGTGAAGTTACAAAGGTCACGCTCCTGT, the binding signal (log2 normalized intensity) amounted to 4.09. To AAGAGAGAGTAGCTCCAAAAGGTGGACAAG belongs -0.956; to ATTTGATAAGGGTATGGATTCTGGGACCCA, -0.26; to CCTCCCGGTCACTACAACAACGGCGGCCCA, -1.08.

Regarding GAGTAACCTGCTTGTTTTCCCAACAGGTGT, the binding signal (log2 normalized intensity) is 1.22. For ACTGGATTCTCAGCCTCACCCTGGTGCTGC, the binding signal (log2 normalized intensity) was -1.21. To CCATTCTTGAGGACAGGCCAAATCCAGTAA belongs -0.994; to CTGGGGGAGTTTCCTGCCTGGTCCGCCCTT, 1.42.

Consider ATTGGAGAGCATCTTGGACTTGGGACTCTG, for which the binding signal (log2 normalized intensity) was 5.78.

With AGCCTGTTCCGACCTTAGTACTCTGCCATG, the binding signal (log2 normalized intensity) amounted to 2.37. To GCTTGTTCTCTCCCCCAACCCCACCTTCAT belongs 4.53; to AACTGGCTTTAAGAGGAATGCTTTGAGCCA, -1.13. As for GAGAGGGGGAGTGAAGGTTAGTACTCAGAA, the figure is -0.568; as for GAATATCTCAGCAGCCTGGCTGCTCGCAGT, -1.13; as for CTGTCCTGGACTTTCCTTTGTTGGGAGACT, 1.19.

AAAAAATTACTGACCCTTGCACTGTAAGAT: the binding signal (log2 normalized intensity) was found to be 3.49. As for GTTTGACCTTTCACCCAGAAAAGGCTGTAA, the figure is 3.7. Consider AGCTGCTAAGTCTTTCCACACAGCCTGTCA, for which the binding signal (log2 normalized intensity) was -0.644. To TCTGATCCCAATTTATCTTTCCAGATTGTT belongs 0.501; to CTACATAAGGGTAGAGACCTTTGTTTTGTT, 2.18. As for CTCTAGAGGGCTGCTTATCTAGGATGAGAA, the figure is -0.882; as for TGATCCCCTCTCCTTTGGTGCAAATACCAT, 1.65. As for AGGAGGAAGGACACTTAGAGATAAGGTAAC, the figure is -1.06.

On to TATAAGAAACTGCTCCTGCTTGGGAGAACC, for which the binding signal (log2 normalized intensity) was -1.03.

Regarding CCTTACCTCCATTAACTAACCTTTGAACCA, the binding signal (log2 normalized intensity) came to 6.78. To GAGTCCACCACTGACCTTAGACCCTCAGGC belongs 4.12. To GGAAAAAGGGAGATAGGTTAAAATTTATCT belongs -0.854. To GCTCCTAGCCCTGCAGTGTATGACACAGCC belongs -1.21.

For the sequence GAGGAGTCAAAAGGTGTATGTGGACTTTCA, the binding signal (log2 normalized intensity) stood at 4.51. As for CAGTTACAAACAAAACAAACTAAACACAGT, the figure is -1.21. On to TAGTATGTGCTAGGCATTTTATAGTATTTC, for which the binding signal (log2 normalized intensity) worked out at 0.73. As for TCTCTTCCCAACAGGAGATTACTTCAAGGC, the figure is -0.662; as for GGATGTCTTTTTCTGACCCATGGGTTGAGG, 2.09; as for GGTATGTACTTTCTTTTGGCTCTCTCTCTT, 1.48. As for GCTGCTTCTCGTCCCCGCCCGAGCCGAACC, the figure is 3.21; as for CAGGGTTAAGGTTTTGTAACACAGAGGCAG, 0.621.

As to TGCCCTTTGTCCAGGGTGAGAGGGACCCTT, the binding signal (log2 normalized intensity) came to 2.41. As for CATCAAACACTCACTGGGAGAGAAAGCTAA, the figure is -1.19; as for AACCCAGCAAACCTGTCTCTCTGCATTCCT, -1.07.

For GTGCAGATTCCACACTGGCTAGATAAGGCT, the binding signal (log2 normalized intensity) was -1.22. Take CTTTTATCTTAGGTAATAAGCCTGAATTCT: the binding signal (log2 normalized intensity) is -0.81. Consider TCACCTTTGCTCTGATCTTTGACTTCTAGT, for which the binding signal (log2 normalized intensity) was 3.02.

Take TCATGCTTTCATCTCCCCAACACTTAAAAC: the binding signal (log2 normalized intensity) amounted to 2.58. As for TTGCAAAATCCTTAGCAAATAGAGATGCAT, the figure is -1.14; as for AACTGACACTTGTTTGAATTGTGATAATAA, 1.14.

Take AAGCAGAGGAGTGGCCATGATGCCATCTGG: the binding signal (log2 normalized intensity) is -1.09. For the sequence TGCAGAGAGAGAGGGAGACAACCTTTGGTC, the binding signal (log2 normalized intensity) was 4.86. On to CATACCAGGCAGAGGGTTAACCCCTATTAA, for which the binding signal (log2 normalized intensity) is 1.62. To GGTTTAGCAAGAATACTGCTGGGTCAGTTT belongs 1.48; to ATCTAAGTGGGTCTAGGTTCTGGGGTGATT, 1.77; to CAGTGACCCAAATATGGTCCCTGACCTTAA, 3.36.

With ACACACCAAAACTCTCTCTCTGTGTCACAT, the binding signal (log2 normalized intensity) worked out at 0.234.

On to CAGTGACTAGCAGATTCTGTGTGGTAAAAG, for which the binding signal (log2 normalized intensity) is 0.592.

Take TCTTGGCAGTGATCAGTGTTGAGAATCCCT: the binding signal (log2 normalized intensity) was -0.922. As for ATGAATAACTTGAATTGATTGCCAAGAGGG, the figure is -1.15; as for ACTGGAGCAAAGGTCACTCTTGCTAAGCTT, 4.29.

Consider ATCAAAAACCATTTGACAATTTACAGTGTT, for which the binding signal (log2 normalized intensity) was 0.409. To AAGATTTATCAGGTCTTTCTTTCAGAACAG belongs 0.622; to ACCTTTGAAACATATCCAGAATGTGTTTGC, 1.53. As for GCCTGAGAATGAGGGGCAGGCTTAGCTGGG, the figure is -1.13.

Consider AGAAAGCTTTGGACTTTGGGCTGTGTTTTG, for which the binding signal (log2 normalized intensity) turned out to be 4.64.

Turning to GTGGGTATTTGGGGAGTTCTTTCTGCCAGA, the binding signal (log2 normalized intensity) is 0.8. TGCTTTAGGCCTCAAGACAAACAATAGATA: the binding signal (log2 normalized intensity) is -0.588. As for AGGCCATTGCCTTTCTCTGTGTGTATGTGT, the figure is 2.59; as for TTAGGGGTTTGTCCAAGAAAAAGGAGCAGA, -0.835; as for ACTATTCCTTTGTTTAGACTTGGGGCCAAA, 1.24. Consider TGAATATCTATTATTAGGTACAAACATACT, for which the binding signal (log2 normalized intensity) was -0.088.

For the sequence AGATCTGGGCAATGTCAACAAATACTGACC, the binding signal (log2 normalized intensity) worked out at 1.18. To GGCAGGATGCATGCACTTCATTGTGCACCC belongs 1.74. As for CACAGTAAGAGACTTCACCATCTGCAAGTG, the figure is -1.15; as for GAAAAGAAGGATAGAGAGTTGGGAGGGAAC, -1.05.

As to AAAGACTTGCTCATTGATGAGTGACCTTTG, the binding signal (log2 normalized intensity) is 6.15. As for TCAGCCTTCTCCGCGGCGGGCCCTCGACCT, the figure is -0.582; as for AATAGATGGCGCAGCGGGTCAATTAGCTTG, 0.323; as for CAGCGACTTGGGAGGCTGAGGTGGAAGGAT, -1.27. Take TGCCCCAGGAATGCCTTTTCTTTCATGTTG: the binding signal (log2 normalized intensity) was 1.43.

In the case of TCACCTACTGACCTTTCTCCCTTTTCACAG, the binding signal (log2 normalized intensity) is 2.86.

AGGCAAAGGTGTCAGGACCTTTCTTTATGG: the binding signal (log2 normalized intensity) stood at 0.852. As for GTAAATAACATTGCTGACCCCCTACATAGA, the figure is 3.8. As for GCTAGGCAGGCTCAGAACTACCAATGTTTA, the figure is -1.17; as for AAAGGACATCTCCGAGTCCAGGGATAACAG, 0.635; as for AAGGTCACTTCGCATTTCCAAAAGAAGAAT, -0.7.

As to CTTCGTCCTTGCCCCTGGCTGGGCCCTGAC, the binding signal (log2 normalized intensity) came out at 0.738. To CACTTCTCACATCACGTCTCTCTGGGGCCC belongs 1.14. As for TCAAAGGTGAGTGGGGAAAGAGCCCCTTTG, the figure is -1.2.

(Values after PMC10726135.)
